Reference: PubChem BioAssay AID1745853 (National Center for Advancing Translational Sciences (NCATS), 2022)
The other results are listed elsewhere or left out. These are further read-outs of the screen, such as a control signal, another cell line or another target. No call is given for them.

Key:
Experiment in all cases: Primary Screen for Target Class Profiling of Small Molecule Inhibitors of Methyltransferases
[1] = molecular target: Glycine N-methyltransferase (Homo sapiens) (UniProt Q14749); conditions: purified enzyme, MTase-Glo SAH luminescence; measured here: GNMT inhibition; at 40 µM; stronger effect = lower value
Outline: (§1)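 Each enzyme was reacted with SAM and its substrate, with compounds tested once at 40 uM; SAH formed was read by MTase-Glo luminescence.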

[2] = molecular target: Guanidinoacetate N-methyltransferase (Homo sapiens) (UniProt Q14353); conditions: purified enzyme, MTase-Glo SAH luminescence; measured here: GAMT inhibition; at 40 µM; stronger effect = lower value
Outline: as §1

[3] = molecular target: Histamine N-methyltransferase (Homo sapiens) (UniProt P50135); conditions: purified enzyme, MTase-Glo SAH luminescence; measured here: HNMT inhibition; at 40 µM; stronger effect = lower value
Outline: as §1

[4] = molecular target: Nicotinamide N-methyltransferase (Homo sapiens) (UniProt P40261); conditions: purified enzyme, MTase-Glo SAH luminescence; measured here: NNMT inhibition; at 40 µM; stronger effect = lower value
Outline: as §1

[5] = molecular target: Phenylethanolamine N-methyltransferase (Homo sapiens) (UniProt P11086); conditions: purified enzyme, MTase-Glo SAH luminescence; measured here: PNMT inhibition; at 40 µM; stronger effect = lower value
Outline: as §1
% is scaled to controls: 0 for no effect and ±100 for the full control effect.

| Structure (SMILES) | activity change, negative = inhibition [1] [%] | activity change, negative = inhibition [2] [%] | activity change, negative = inhibition [3] [%] | activity change, negative = inhibition [4] [%] | activity change, negative = inhibition [5] [%] |
| --- | --- | --- | --- | --- | --- |
| CC(C)C(=O)c1cn(CC(=O)COc2ccc(Oc3ccccc3)cc2)c2ccc(C(=O)O)cc12 | -27.2 | 2.71 | -5.52 | -29.4 | -3.03 |
| CC(O)C(=O)N1CCc2[nH]nc(C(c3ccccc3)c3ccccc3)c2C1 (stereo not given) | -8.98 | -12.4 | -4.85 | -17.6 | -9.34 |
| CCN1CCN(c2nc3c(-c4cccc(F)c4)nnn3c3ccc(Cl)cc23)CC1 | -5.14 | 1.4 | -1.08 | -0.95 | -5.53 |
| O=S(=O)(NCCn1cc(-c2cncnc2)nn1)c1ccc(Cl)cc1 | -5.39 | -6.9 | -2.27 | -10.6 | -9.4 |
| C[C@]1(CO)CCC[C@]2(C)C3=C(CCC12)COC3 (stereo not given in full) | 6.81 | 5.72 | 11.7 | -7 | 2.09 |
| Cc1nc(Cn2ccnc2-c2cn(C3CCNCC3)nn2)cs1 | -6.94 | -8.81 | -8.79 | -15 | -12.4 |
| CC(C)CCn1c(=O)c2ccccc2n2c(=O)n(Cc3ccccc3F)nc12 | -5.64 | 4.87 | 1.49 | -11.3 | -2.38 |
| O=C(Cn1ccc2cc(S(=O)(=O)N3CCCCC3)ccc21)NC1CC1 | 6.89 | 0.982 | 1.89 | 11.3 | 3.43 |
| COc1cc(CC(COC2OC(CO)C(O)C(O)C2O)c2cc(/C=C/CO)cc(OC)c2O)ccc1O (stereo not given) | 4.09 | 0.42 | 8.33 | -8.62 | -1.45 |
| O=C1CCC2(C(=O)NCCN3CCOCC3)CCCC=C2N1C1CCCC1 (stereo not given) | 1.81 | 2.21 | 0.162 | -0.173 | 1.18 |
| Cc1cccc(-c2[nH]c(CNc3ccccc3F)nc2-c2ccc3ncnn3c2)n1 | 2.16 | 2.23 | 3.84 | -16.6 | -0.443 |
| CC1(C)CCCC2(C)C1C(O)C=C(CO)C2(O)C(=O)O (stereo not given) | -7.78 | 2.8 | 5.55 | -9.35 | 3.64 |
| NC(=O)CCNC(=O)C1=C[C@@H](NC(=O)c2cccs2)[C@@H](O)[C@H](O)C1 | -3.34 | -4.81 | -0.379 | -7.31 | -4.47 |
| COc1ccccc1CNC(=O)CN(C)S(=O)(=O)c1ccc2[nH]c3c(c2c1)CCCC3 | 1.37 | 0.708 | 4.3 | -4.97 | 3.22 |
| CCc1nc2c(c(-c3ccc(Cl)cc3)n1)CN(Cc1ccccn1)CC2 | -5.98 | -0.188 | -3.96 | -8.31 | -8.56 |
| Cn1ccnc1CN1CC2(CCN(C(=O)C3CC3)CC2)CC1C(=O)O (stereo not given) | 0.988 | 3.48 | 1.39 | -1.46 | 1.92 |
| CCn1c(CO)nnc1C1CC(NC(=O)Cn2ncc3ccccc32)C1 (stereo not given) | -2.71 | -1.32 | -0.545 | -0.362 | -0.1 |
| Cc1cc(C)n(-c2ccc(C(=O)N[C@H]3C[C@H]4C(=O)NCC(=O)N4C3)cc2)n1 | -1.19 | 1.18 | -0.433 | 0.977 | 3.85 |
| CCCS(=O)(=O)Nc1ccc(F)c(C(=O)c2c[nH]c3ncc(-c4ccc(Cl)cc4)cc23)c1F | -8.45 | -12.7 | 1.44 | -51 | -19.8 |
| Cc1cccc(CN2C(=O)c3ccc(-c4ccco4)n3CC2(C)C(=O)NCc2ccc(Cl)cc2)c1 (stereo not given) | -5.7 | 2.58 | -4.49 | -8.35 | -6.87 |
| Cn1ccnc1CCOC(c1cc2nccc(C(=O)O)c2[nH]1)c1ccccc1Cl (stereo not given) | -1.71 | -3.55 | -6.27 | -18.1 | 1.15 |
| COc1cc(C2Nc3c(cccc3C(F)(F)F)C3C=CCC32)cc(Br)c1OC (stereo not given) | -8.79 | -0.232 | -9.05 | -10.5 | -9.98 |
| CC(C)NC(=O)c1ccc2c(=O)n(C(C)C)c3nn(Cc4ccc(F)cc4)c(=O)n3c2c1 | 2.52 | 4.53 | 8.79 | -3 | 5.33 |
| CSCCC(=O)N1CCCC1C(=O)Nc1cccc(-n2cccn2)c1 (stereo not given) | -28.3 | -6.42 | -2.68 | -9.01 | -2.34 |
| CCCC1c2cccn2CCN1C(=O)NC1(CC(=O)OCC)CCCCC1 (stereo not given) | -6.16 | 4.68 | -16.9 | -6.79 | -35.9 |
| COc1ccc(CNC(=O)c2cnc3c(c2)N(C(=O)CCc2ccccc2)CCC3)cc1OC | -11.9 | -1.58 | -12.8 | -7.71 | 5.76 |
| COc1ccccc1CNC(=O)C1(C)Cn2c(cc3ccccc32)C(=O)N1Cc1cccnc1 (stereo not given) | -3.63 | 3.71 | -2.23 | -8.47 | -4.78 |
| COCC(=O)N[C@@H]1CN(C(=O)Cc2cccc(OC)c2)CC[C@@H]1c1nc(C)no1 | -5.29 | -2.18 | -2.29 | -4.35 | 12.8 |
| CCCCNC(=O)NS(=O)(=O)c1ccc(C)cc1 | 2.14 | 9.55 | 3.54 | -2.65 | 5.48 |
| C[C@@H]1O[C@@H](O[C@H]2[C@H](Oc3cc(O)c(C(=O)CCc4ccc(O)cc4)c(O)c3)O[C@H](CO)[C@@H](O)[C@@H]2O)[C@H](O)[C@H](O)[C@H]1O | 4.61 | 3.69 | 12 | -8 | 2.29 |
